In article PMC8826421, “Differential activation mechanisms of lipid GPCRs by lysophosphatidic acid and sphingosine 1-phosphate” (Nature Communications, 2022):

Key:
[1] = target: T1, full-length rat Gαi dominant negative (G203A) (rat, UniProt P10824, G203A); assay: cryo-EM structure; purified S1P1, Gαi and Gβ1γ2 mixed 1:1.5:1.5 in 10 mM HEPES pH 7.0, 100 mM NaCl, 0.05% MNG, 0.01% glycerol, 0.1 mM TCEP, 0.4 U apyrase, 2 mM MgCl2, with 10 µM S1P, 4 °C overnight; Superdex 200 with 1 µM agonist; single-particle cryo-EM; settings: both partners purified
T1 construct: The methods say only Gαi; also called Gαi1; source: E. coli BL21 (DE3), purified (Ni-NTA, Superdex 200), in buffers with 10 µM GDP

[2] = target: T1, full-length rat Gαi dominant negative …; assay: cryo-EM structure; purified LPA1, Gαi and Gβ1γ2 mixed 1:1.5:1.5 in 10 mM HEPES pH 7.0, 100 mM NaCl, 0.05% MNG, 0.01% glycerol, 0.1 mM TCEP, 0.4 U apyrase, 2 mM MgCl2, with 10 µM LPA, 4 °C overnight; Superdex 200 with 1 µM agonist; single-particle cryo-EM (consensus, state a and state a' from 3DVA clustering); settings: both partners purified

binding result [1]	binding result [2]	Binder
binds	–	human S1P receptor 1 (S1P1), residues 2-347 (receptor, UniProt P21453 2-347, looked up, glycosylation on the cap segment (residue not given), human sphingosine 1-phosphate receptor 1 (S1P1), residues 2-347; A remnant of the PreScission site is left at the C-terminus after the cut; also called sphingosine 1-phosphate receptor 1; source: Sf9 insect cells, purified (GFP nanobody beads, PreScission cut, Superdex 200); not shown: eGFP, C-terminal, cleaved; 8xHis, C-terminal, cleaved) GPTSVPLVKAHRSSVSDYVNYDIIVRHYNYTGKLNISADKENSIKLTSVVFILICCFIILENIFVLLTIWKTKKFHRPMYYFIGNLALSDLLAGVAYTANLLLSGATTYKLTPAQWFLREGSMFVALSASVFSLLAIAIERYITMLKMKLHNGSNNFRLFLLISACWVISLILGGLPIMGWNCISALSSCSTVLPLYHKHYILFCTTVFTLLLLSIVILYCRIYSLVRTRSRRLTFRKNISKASRSSEKSLALLKTVIIVLSVFIACWAPLFILLLLDVGCKVKTCDILFRAEYFLVLAVLNSGTNPIIYTLTNKEMRRAFIRIMSCCKCPSGDSAGKFKRPIIAG
–	binds	human LPA receptor 1 (LPA1), residues 2-340 (receptor, UniProt Q92633 2-340, looked up, human lysophosphatidic acid receptor 1 (LPA1), residues 2-340; A remnant of the PreScission site is left at the C-terminus after the cut; also called lysophosphatidic acid receptor 1; source: Sf9 insect cells, purified (GFP nanobody beads, PreScission cut, Superdex 200); not shown: eGFP, C-terminal, cleaved; 8xHis, C-terminal, cleaved) AAISTSIPVISQPQFTAMNEPQCFYNESIAFFYNRSGKHLATEWNTVSKLVMGLGITVCIFIMLANLLVMVAIYVNRRFHFPIYYLMANLAAADFFAGLAYFYLMFNTGPNTRRLTVSTWLLRQGLIDTSLTASVANLLAIAIERHITVFRMQLHTRMSNRRVVVVIVVIWTMAIVMGAIPSVGWNCICDIENCSNMAPLYSDSYLVFWAIFNLVTFVVMVVLYAHIFGYVRQRTMRMSRHSSGPRRNRDTMMSLLKTVVIVLGAFIICWTPGLVLLLLDVCCPQCDVLAYEKFFLLLAEFNSAMNPIIYSYRDKEMSATFRQILCCQRSENPTGPTEG
